# Laboratory results reported in PubChem BioAssay AID1745853 (National Center for Advancing Translational Sciences (NCATS), 2022).
# Values joined by “and” are separate entries in the source; they are usually repeats but may differ in a detail not shown here. Equal values may be shown once. Some of the results follow. Shown are side measurements of this screen, not its main read-out; they come without a call.
# How the values were obtained:
# Experiment in all cases: Primary Screen for Target Class Profiling of Small Molecule Inhibitors of Methyltransferases
# [1] = biological target: Glycine N-methyltransferase (Homo sapiens) (UniProt Q14749); conditions: purified enzyme, MTase-Glo SAH luminescence; measured here: GNMT inhibition; at 40 µM; stronger effect = lower value
# Procedure, shortened: (§1)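 Each enzyme was assayed with SAM and its substrate. SAH formation detected by MTase-Glo luminescence; single-point 40 uM screen[…].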
# [2] = biological target: Guanidinoacetate N-methyltransferase (Homo sapiens) (UniProt Q14353); conditions: purified enzyme, MTase-Glo SAH luminescence; measured here: GAMT inhibition; at 40 µM; stronger effect = lower value
# Procedure, shortened: as §1
# [3] = biological target: Histamine N-methyltransferase (Homo sapiens) (UniProt P50135); conditions: purified enzyme, MTase-Glo SAH luminescence; measured here: HNMT inhibition; at 40 µM; stronger effect = lower value
# Procedure, shortened: as §1
# [4] = biological target: Nicotinamide N-methyltransferase (Homo sapiens) (UniProt P40261); conditions: purified enzyme, MTase-Glo SAH luminescence; measured here: NNMT inhibition; at 40 µM; stronger effect = lower value
# Procedure, shortened: as §1
# [5] = biological target: Phenylethanolamine N-methyltransferase (Homo sapiens) (UniProt P11086); conditions: purified enzyme, MTase-Glo SAH luminescence; measured here: PNMT inhibition; at 40 µM; stronger effect = lower value
# Procedure, shortened: as §1
# % is scaled to controls: 0 for no effect and ±100 for the full control effect.
SMILES,"activity change, negative = inhibition [1]","activity change, negative = inhibition [2]","activity change, negative = inhibition [3]","activity change, negative = inhibition [4]","activity change, negative = inhibition [5]"
Cc1ccc2cc(CN3CCN(CC(N)=O)CC3)c(-c3cccs3)nc2c1,-2.61%,-0.852%,-2.02%,-1.79%,-15.6%
Cc1nn(C)cc1C(=O)NCCn1c(C)cnc1C1CC1,-0.311%,-0.382%,-12.2%,-0.906%,1.23%
COc1ccccc1C(=O)N(Cc1ccco1)S(=O)(=O)c1ccc2c(c1)n(C)c(=O)n2C,4.88%,1.21%,1.42%,9.95%,1.92%
CCN(CC)C(=O)[C@@H](C)C1CC[C@@]2(C)CC[C@H](NC(=O)c3ccncc3)[C@@H](C)[C@@H]2[C@H]1O (stereo partly drawn),-2.64%,-4.69%,-2.22%,-3.35%,-3.48%
CC(=O)Nc1c2n(c3ccc(F)cc13)CC(C)(C(=O)NCCC(C)C)N(Cc1ccco1)C2=O (stereo not drawn),1.71%,0%,3.61%,9.59%,-7.75%
COc1ccc(C(=O)N2CCC[C@H]2c2nc(-c3ccccc3)no2)cc1,-3.89%,-3.48%,-1.06%,-17.9%,-3.84%
Cc1cc2nn(CC(=O)Nc3cccc(Cl)c3)c(=O)n2c(Nc2ccccc2C)n1,13.5%,0%,1.74%,3.79%,4.38%
O=C(NCC1CCOCC1)c1ccoc1,-5.16%,-0.648%,-2.98%,-7.45%,-6.86%
Cn1nccc1C(=O)N1CCCCCNC(=O)[C@@H]2CCC[C@@H]21,0.731%,0.553%,1.62%,-5.75%,13.8%
Nc1nonc1-c1nc2cnccc2n1C1CC1,–,0.358%,–,-42.1%,-10.5%
CC(C)C(=O)N(Cc1ccco1)S(=O)(=O)c1ccc2c(c1)n(C)c(=O)n2C,1%,0%,6.01%,3.2%,1.35%
Cc1ccc(Cn2c(=O)c3ccc(C(=O)NC(C)C)cc3n3c(=O)n(Cc4ccc(Cl)cc4)nc23)cc1,7.98%,2.43%,10.6%,9.31%,7.37%
Oc1ccc2ccccc2c1SSc1c(O)ccc2ccccc12,-54.3%,-2.18%,-5.91%,-9.21%,-1.82%
Clc1ccc(Cn2c(CN3CCCC3)nc3ccccc32)cc1,-9.07% and -3.68%,-14.5% and 8.47%,1.51% and -4.75%,-28.8% and -20.9%,-3.81% and 4.37%
O=C(CCc1nnc2n(Cc3ccccc3Cl)c(=O)c3ccccc3n12)N1CCN(c2ccccn2)CC1,-13.7%,5.1%,5.14%,8.69%,-8.43%
COc1cc2nc(N(C)CCCNC(=O)C3CCCO3)nc(N)c2cc1OC (stereo not drawn),-9.79%,-0.266%,-4.02%,-9.63%,1.23%

SMILES,"activity change, negative = inhibition [1]","activity change, negative = inhibition [2]","activity change, negative = inhibition [3]","activity change, negative = inhibition [4]","activity change, negative = inhibition [5]"
COc1ccc(-c2ccccc2C(=O)NCC#N)nn1,-6.34%,-11.9%,-3.26%,-8.69%,-13.7%
O=C(Nc1cc(C(F)(F)F)cc(C(F)(F)F)c1)c1cnc(Cl)nc1C(F)(F)F,-11.1%,-27.6%,-0.198%,-41.1%,-3.52%
COc1ccc2cc3n(c2c1)CC(C)(C(=O)NC1CCCC1)N(Cc1cccnc1)C3=O (stereo not drawn),-1.39%,0.619%,3%,-2.4%,-3.83%
O=C(Nc1ccc(F)cc1F)N1Cc2c(sc3c2CCCC3)-n2cccc2C1c1ccc(F)cc1 (stereo not drawn),1.95%,0%,4.11%,1.86%,3.69%
Cn1cccc1CN1CCC2(CC1)CNc1ccccc1[S+](=O)([O-])N2,-7.6%,-8.18%,-24.9%,-6.76%,-6.95%
Cc1cccc(NC(=O)c2cc3n(n2)CC(C)(C(=O)NCc2ccc(F)cc2)N(C)C3=O)c1C (stereo not drawn),4.33%,0%,3.14%,0.914%,4.14%
Cc1ccccc1CCNC(=O)c1cc2n(n1)CC(C)(C(=O)NCc1ccccc1)N(C)C2=O (stereo not drawn),10.2%,0.36%,10.3%,12.7%,3.42%
Cc1ccc(C)c(C(=O)Cn2nc3n(CCC(C)C)c(=O)c4ccc(C(=O)NC(C)C)cc4n3c2=O)c1,4.15%,0%,-0.148%,4.44%,4.96%
Cc1cc2c(cc3n2CC(C)(C(=O)NC2CCCCC2)N(Cc2ccccc2C)C3=O)o1 (stereo not drawn),-2.78%,4.52%,-1.26%,-1.74%,-3.7%
CCOC(=O)c1cc2n(n1)CC(C)(C(=O)NCc1ccccc1)N(CCc1ccccc1OC)C2=O (stereo not drawn),1.29%,0%,3.41%,-4.97%,2.33%
CCCCNc1nc2c(-c3cccc(F)c3)nnn2c2ccccc12,-6.71%,6.29%,-2.03%,0.719%,-8.22%
O=C(O)/C=C/c1ccc(O)c(O)c1,-7.49%,9.68%,3.05%,0.156%,11.2%
CCC(C)NC(=O)c1ccc2c(=O)n(C)c3nnc(SCC(=O)NC4CCCCC4)n3c2c1 (stereo not drawn),7.14%,3.93%,4.9%,2.2%,2.27%
CCCCc1nc2cc(/C=C/C(=O)NO)ccc2n1CCN(CC)CC,3.6% and -17.7%,5.9%,-19.9% and -27.7%,-9.43% and 10.1%,5.42% and 42.2%
COc1ccc(OC)c(-c2nnc3ccc(-c4ccc(OC)c(O[C@@H]5CCOC5)c4)nn23)c1,-18.7%,-1.3%,-1.73%,-14.8%,1.21%
